# Over roughly 33,000 sequences, “E-score (-0.5 to 0.5)” has its median near -0.011; the highest 2% begin near 0.28. Some of the results follow.
# Target: T1, Gcr1 (UniProt P07261)
# T1 sequence: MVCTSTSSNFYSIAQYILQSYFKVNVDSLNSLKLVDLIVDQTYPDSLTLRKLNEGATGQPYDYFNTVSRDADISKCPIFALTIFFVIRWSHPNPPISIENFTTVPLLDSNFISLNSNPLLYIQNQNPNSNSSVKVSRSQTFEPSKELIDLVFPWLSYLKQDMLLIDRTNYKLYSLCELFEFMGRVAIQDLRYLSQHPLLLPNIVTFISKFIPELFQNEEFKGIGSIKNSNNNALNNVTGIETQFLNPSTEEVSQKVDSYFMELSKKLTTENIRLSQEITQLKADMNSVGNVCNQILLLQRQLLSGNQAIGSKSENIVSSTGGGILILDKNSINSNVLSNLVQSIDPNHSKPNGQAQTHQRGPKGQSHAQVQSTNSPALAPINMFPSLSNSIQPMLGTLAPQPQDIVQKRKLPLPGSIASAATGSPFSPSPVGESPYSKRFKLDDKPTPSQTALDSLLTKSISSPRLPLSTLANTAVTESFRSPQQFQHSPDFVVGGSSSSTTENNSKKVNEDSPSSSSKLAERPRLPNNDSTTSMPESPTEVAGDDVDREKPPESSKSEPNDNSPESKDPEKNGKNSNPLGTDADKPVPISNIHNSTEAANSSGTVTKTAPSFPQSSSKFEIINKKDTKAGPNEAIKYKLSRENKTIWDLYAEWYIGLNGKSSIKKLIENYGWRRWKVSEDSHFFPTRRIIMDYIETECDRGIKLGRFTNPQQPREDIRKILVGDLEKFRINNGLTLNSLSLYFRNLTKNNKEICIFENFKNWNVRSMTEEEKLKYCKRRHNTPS
# Test: PBM E-score (8-mer binding enrichment) (E-score (-0.5 to 0.5)); higher = stronger / more preferred TF binding; most listed sequences are background and not binding sites
# Settings: protein concentration: 100 nM; construct: GST-full length
# How it was run: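 Using PURExpress in vitro transcription/translation, GST-tagged yeast transcription factors were made in full-length or DNA-binding-domain form. These were applied at about 100-200 nM to double-stranded universal all-10-mer Agilent arrays, and bound protein was detected with fluorescent anti-GST. Scans were normalised with masliner before the Universal PBM Analysis Suite assigned E-scores to ungapped eight-base words pooled with their reverse complements.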
row,Sequence,PBM E-score
1,GGTCTAAA,-0.202
2,ACATACGG,-0.0164
3,GGACCAGA,0.00506
4,AGCCTATA,0.146
5,GCCCACTA,0.229
6,CATAAGGG,0.109
7,CCGCTGGC,-0.21
8,GAAACACC,0.0661
9,AATTGATC,0.0134
10,AGTGAGAT,0.0539
11,AGTCCCCG,-0.106
12,CGCAAGTC,-0.135
13,AGTGTATC,-0.156
14,CCCTTGCG,-0.303
15,TATACCCA,0.126
16,ATGCGTAA,0.0589
17,CGGGTATA,-0.00271
18,AGAGCACT,-0.175
19,AGGGTCGG,-0.133
20,GGACCTTA,-0.0838
21,CGTACTAG,-0.0906
22,CCCTAGGC,-0.14
23,TAGTGAAA,0.0605
24,AAAAGTTC,0.0111
25,GGTACCAA,0.0964

row,Sequence,PBM E-score
1,ATTTTCTA,0.036
2,AAACTCTG,-0.0423
3,CGGGCACC,0.376
4,AGAGGCGG,-0.0464
5,ATGACCGA,-0.19
6,CTACCCGA,-0.0733
7,GCCGAGCC,-0.0686
8,ACACTCGA,-0.116
9,CGTGCTGC,-0.0514
10,GTTAGTTA,0.0818
11,AATAGATG,0.237
12,GTACTTTA,0.107
13,CCCAGCCG,-0.0788
14,AACTGATA,0.0463
15,CTGCAACC,0.0546
16,CTCTCCGC,0.0746
17,CATTTGAA,0.104
18,CACTGTCC,-0.0748
19,ACTAACAC,-0.116
20,AGTTAAGC,0.163
21,AACGCATC,0.0976
22,CTAATGAA,0.16
23,AAAGATAG,0.00998
24,AAGTCTCA,-0.0755
25,CTTGGAGA,0.101

row,Sequence,PBM E-score
1,CCTAATCG,0.0174
2,CTTTTGAA,0.1
3,CGCGAAAA,0.0876
4,CGGTGCTC,0.185
5,CACTCACG,-0.0374
6,ACATACTG,0.0904
7,CAGGCCCG,-0.263
8,AACGGAAA,0.0776
9,ATAATACG,0.0642
10,CGGCGCTC,0.136
11,TCGCGTAA,0.16
12,AGAAATCG,-0.0525
13,GACTCATA,-0.142
14,CTGATACC,0.168
15,GTCCAGCA,-0.0714
16,AGTCTCGA,-0.114
17,CTTCTCCC,-0.0881
18,CAGTGTAA,-0.102
19,GACAAAGA,-0.0165
20,GGCACAAA,0.0185
21,CACGAGCG,-0.173
22,GGACCCAC,0.201
23,AGACCATC,-0.17
24,GAGGATGA,-0.0555
25,CAGGTCTA,-0.117

row,Sequence,PBM E-score
1,CCGGTCTA,-0.276
2,AACCATTA,0.0636
3,AGGAGCTC,-0.0587
4,AGCTCCGG,0.117
5,CTACGACC,-0.152
6,CACTCCTC,0.0608
7,ATACACCG,-0.0484
8,ATATTATA,0.138
9,ACGGAAGA,0.0748
10,CTAGACCA,-0.051
11,CTGGTCAA,0.0775
12,CCGTACCG,-0.258
13,ATTTAGAA,0.19
14,AAGCGGCC,0.123
15,CGGCCTGA,0.00578
16,ACTTCGGA,0.102
17,AGAAAGCG,-0.0791
18,CCCTATGC,-0.136
19,CCTAAGGA,0.0409
20,AGGCGACT,-0.0624
21,AAGAGTAA,-0.0445
22,ACTTACAA,0.126
23,AACCGTAT,-0.0776
24,ATTCCTCG,-0.0652
25,CAACACCG,-0.111

row,Sequence,PBM E-score
1,CTATAGTC,-0.176
2,ATGGGTAA,0.062
3,GTGGCAAC,0.235
4,CTTACTCC,-0.226
5,ACTCCCCA,0.0542
6,CGTAATCA,-0.151
7,AGTGTCTA,-0.153
8,CCGCCCCA,0.154
9,CTCCGCCC,-0.196
10,CCTTCGTC,-0.0715
11,GCAGAGTA,-0.0213
12,GAGTATTA,-0.0678
13,AATAGCGG,0.143
14,AGCGTAGC,-0.0409
15,GAGATTGC,-0.261
16,AAGCTGAC,0.0829
17,CCGGCATC,0.38
18,CCTGTGAC,-0.0507
19,ATTGAAGG,-0.188
20,CAAACGGC,-0.0434
21,CCCTCTAC,-0.191
22,AATGATTC,-0.139
23,AGCCCGCA,0.225
24,ACCTGAGA,-0.038
25,CCGAACCA,-0.0651

row,Sequence,PBM E-score
1,TCGGAGCA,-0.322
2,AAATGCCG,0.0711
3,AAAAGGAC,0.0425
4,AACCACTG,0.0775
5,GAGCCCGA,0.0537
6,ACCGCAGT,-0.0982
7,ACCGACCC,-0.177
8,AAATTTGA,-0.0347
9,CTTACAAG,-0.0531
10,GTACTGAC,-0.0166
11,ACATACCT,-0.21
12,GCGATTCC,0.0997
13,AACTACGG,-0.0925
14,CGATCTTC,-0.0371
15,CAGCCCAG,-0.143
16,AGGAGGTC,-0.113
17,AACGCTCT,-0.107
18,CCCCGTTA,-0.0362
19,TATAGGGA,-0.00691
20,CGGATCCG,0.212
21,GGCCCTAA,0.128
22,AGATGGTC,-0.0165
23,CAGAGTCA,-0.0175
24,TATTCCCA,-0.0395
25,GAGACTAA,-0.0955

row,Sequence,PBM E-score
1,CTAGTCAG,0.141
2,GCCGCGGA,0.045
3,GCGGGTCA,-0.0549
4,AGCCGTTA,0.0667
5,CGGGCAGC,0.309
6,CACCCGCG,-0.119
7,CAAAAGAG,0.0266
8,AATCGGCA,0.0526
9,ACTTTCGA,-0.0806
10,GCGTACGC,-0.0345
11,AAAAGTTA,0.165
12,GGCAGTGA,-0.113
13,CACCGGCC,-0.0639
14,GGGCAGAC,-0.167
15,CTCACTGA,-0.0627
16,ATATTTGG,0.206
17,GACTACGC,-0.0868
18,ACTATCCG,-0.0823
19,CTCCGGAA,0.225
20,AATTCAAC,0.0448
21,CGATGGAC,-0.0892
22,AAAGGTAA,0.063
